pIC50: −log10 of the molar value. IC50 is the fitted dose that halves viability relative to control wells, and lower means more sensitive; fits outside the tested doses are given as limits. AUC sums up the same curve from the lowest dose to the 256-fold higher top dose; values near 1 show little effect.
Compound: FC(F)c1nc2ccccc2n1-c1nc(N2CCOCC2)nc(N2CCOCC2)n1 [ZSTK474]
Test: Viability of human cancer cell lines after 72 h of drug (GDSC screen)
Method: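 Human cancer cell lines in 384-well plates, medium with 10% serum, drug for 72 h over a 256-fold dose range (nine 2-fold or five 4-fold steps up to the top dose). Adherent lines were fixed and stained with the nucleic acid dye Syto60, suspension lines read with resazurin; signal relative to control wells, capped at 0 and 100%. One two-parameter sigmoid per drug and line, fitted in a mixed model over all curves with the slope shared within a line.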

| Cell Line | AUC | pIC50 |
| --- | --- | --- |
| Capan-2 (pancreas, adherent, top dose 5.12 µM) | 0.843 | 5.32 |
| ChaGo-K-1 (non-small cell lung carcinoma, adherent, top dose 5.12 µM) | 0.917 | < 5.29 |
| D-247MG (glioma, adherent, top dose 5.12 µM) | 0.83 | 5.30 |
| D-263MG (glioma, adherent, top dose 5.12 µM) | 0.969 | < 5.29 |
| D-283MED (medulloblastoma, adherent, top dose 5.12 µM) | 0.99 | < 5.29 |
| D-336MG (glioma, adherent, top dose 5.12 µM) | 0.658 | 6.00 |
| D-392MG (glioma, adherent, top dose 5.12 µM) | 0.839 | < 5.29 |
| D-423MG (glioma, adherent, top dose 5.12 µM) | 0.52 | 6.44 |
| D-502MG (glioma, adherent, top dose 5.12 µM) | 0.776 | 5.47 |
| D-542MG (glioma, adherent, top dose 5.12 µM) | 0.923 | < 5.29 |
| D-566MG (glioma, adherent, top dose 5.12 µM) | 0.968 | < 5.29 |
| DAN-G (pancreas, adherent, top dose 5.12 µM) | 0.841 | 5.53 |
| DB (B-cell lymphoma, suspension, top dose 5.12 µM) | 0.897 | < 5.29 |
| DBTRG-05MG (glioma, adherent, top dose 5.12 µM) | 0.893 | < 5.29 |
| DEL (lymphoid neoplasm, suspension, top dose 5.12 µM) | 0.909 | 5.35 |
| DG-75 (Burkitt lymphoma, suspension, top dose 5.12 µM) | 0.926 | < 5.29 |
| DJM-1 (skin, adherent, top dose 5.12 µM) | 0.96 | < 5.29 |
| DK-MG (glioma, adherent, top dose 5.12 µM) | 0.852 | < 5.29 |
| DMS-53 (small cell lung carcinoma, adherent, top dose 5.12 µM) | 0.982 | < 5.29 |
| DMS-79 (small cell lung carcinoma, suspension, top dose 5.12 µM) | 0.889 | < 5.29 |
| DMS-114 (small cell lung carcinoma, adherent, top dose 5.12 µM) | 0.78 | 5.61 |
| DMS-273 (small cell lung carcinoma, adherent, top dose 5.12 µM) | 0.9 | < 5.29 |
| DND-41 (T-cell leukaemia, suspension, top dose 5.12 µM) | 0.739 | 5.86 |
| DOK (head and neck, adherent, top dose 5.12 µM) | 0.629 | 6.06 |
| DOV13 (ovary, adherent, top dose 5.12 µM) | 0.91 | < 5.29 |
| DSH1 (bladder, adherent, top dose 5.12 µM) | 0.79 | 5.66 |
| DU-145 (prostate, adherent, top dose 5.12 µM) | 0.954 | < 5.29 |

| Cell Line | AUC | pIC50 |
| --- | --- | --- |
| DU-4475 (breast, suspension, top dose 5.12 µM) | 0.904 | 5.34 |
| Daoy (medulloblastoma, adherent, top dose 5.12 µM) | 0.686 | 6.00 |
| Detroit562 (head and neck, adherent, top dose 5.12 µM) | 0.901 | < 5.29 |
| DoTc2-4510 (cervix, adherent, top dose 5.12 µM) | 0.928 | < 5.29 |
| EB2 (Burkitt lymphoma, suspension, top dose 5.12 µM) | 0.146 | 7.53 |
| EB-3 (Burkitt lymphoma, suspension, top dose 5.12 µM) | 0.534 | 6.40 |
| EBC-1 (lung squamous cell carcinoma, adherent, top dose 5.12 µM) | 0.708 | 5.87 |
| EC-GI-10 (oesophagus, adherent, top dose 5.12 µM) | 0.989 | < 5.29 |
| ECC10 (stomach, suspension, top dose 5.12 µM) | 0.901 | < 5.29 |
| EFM-19 (breast, adherent, top dose 5.12 µM) | 0.66 | 5.95 |
| EFM-192A (breast, adherent, top dose 5.12 µM) | 0.675 | 5.98 |
| EFO-21 (ovary, adherent, top dose 5.12 µM) | 0.743 | 5.66 |
| EFO-27 (ovary, adherent, top dose 5.12 µM) | 0.823 | 5.39 |
| EGI-1 (biliary tract, adherent, top dose 5.12 µM) | 0.729 | 5.75 |
| EJM (lymphoid neoplasm, semi-adherent, top dose 5.12 µM) | 0.707 | 5.96 |
| EKVX (lung adenocarcinoma, adherent, top dose 5.12 µM) | 0.847 | < 5.29 |
| EM-2 (chronic myeloid leukaemia, suspension, top dose 5.12 µM) | 0.835 | 5.40 |
| EMC-BAC-1 (lung adenocarcinoma, adherent, top dose 5.12 µM) | 0.813 | 5.49 |
| EMC-BAC-2 (lung adenocarcinoma, adherent, top dose 5.12 µM) | 0.759 | 5.68 |
| EN (endometrium, adherent, top dose 5.12 µM) | 0.799 | 5.49 |
| EPLC-272H (lung squamous cell carcinoma, adherent, top dose 5.12 µM) | 0.626 | 6.13 |
| ES1 (Ewing sarcoma, adherent, top dose 5.12 µM) | 0.54 | 6.39 |
| ES3 (Ewing sarcoma, adherent, top dose 5.12 µM) | 0.705 | 5.90 |
| ES4 (Ewing sarcoma, adherent, top dose 5.12 µM) | 0.524 | 6.42 |
| ES5 (Ewing sarcoma, adherent, top dose 5.12 µM) | 0.381 | 6.84 |
| ES6 (Ewing sarcoma, adherent, top dose 5.12 µM) | 0.533 | 6.39 |
| ES7 (Ewing sarcoma, adherent, top dose 5.12 µM) | 0.268 | 7.17 |

| Cell Line | AUC | pIC50 |
| --- | --- | --- |
| ES8 (Ewing sarcoma, adherent, top dose 5.12 µM) | 0.604 | 6.22 |
| ES-2 (ovary, adherent, top dose 5.12 µM) | 0.961 | < 5.29 |
| ESO26 (oesophagus, adherent, top dose 5.12 µM) | 0.76 | 5.77 |
| ESO51 (oesophagus, semi-adherent, top dose 5.12 µM) | 0.76 | 5.60 |
| ESS-1 (endometrium, adherent, top dose 5.12 µM) | 0.914 | < 5.29 |
| ETK-1 (biliary tract, adherent, top dose 5.12 µM) | 0.809 | 5.51 |
| EVSA-T (breast, adherent, top dose 5.12 µM) | 0.592 | 6.26 |
| EW-1 (Ewing sarcoma, semi-adherent, top dose 5.12 µM) | 0.368 | 6.84 |
| EW-3 (Ewing sarcoma, adherent, top dose 5.12 µM) | 0.7 | 5.89 |
| EW-7 (Ewing sarcoma, semi-adherent, top dose 5.12 µM) | 0.527 | 6.42 |
| EW-11 (Ewing sarcoma, adherent, top dose 5.12 µM) | 0.435 | 6.69 |
| EW-13 (Ewing sarcoma, suspension, top dose 5.12 µM) | 0.596 | 6.22 |
| EW-16 (Ewing sarcoma, adherent, top dose 5.12 µM) | 0.669 | 6.01 |
| EW-18 (Ewing sarcoma, suspension, top dose 5.12 µM) | 0.438 | 6.67 |
| EW-24 (Ewing sarcoma, semi-adherent, top dose 5.12 µM) | 0.993 | < 5.29 |
| EoL-1-cell (haematopoietic neoplasm, suspension, top dose 5.12 µM) | 0.883 | 5.36 |
| FADU (head and neck, adherent, top dose 5.12 µM) | 0.935 | < 5.29 |
| FLO-1 (oesophagus, adherent, top dose 5.12 µM) | 0.72 | 5.74 |
| FTC-133 (thyroid, adherent, top dose 5.12 µM) | 0.983 | < 5.29 |
| FU97 (stomach, adherent, top dose 5.12 µM) | 0.71 | 5.89 |
| FU-OV-1 (ovary, adherent, top dose 5.12 µM) | 0.528 | 6.41 |
| Farage (B-cell lymphoma, suspension, top dose 5.12 µM) | 0.219 | 7.23 |
| G-292 Clone A141B1 (osteosarcoma, adherent, top dose 5.12 µM) | 0.662 | 5.92 |
| G-361 (melanoma, adherent, top dose 5.12 µM) | 0.752 | 5.79 |
| G-401 (kidney, adherent, top dose 5.12 µM) | 0.668 | 6.00 |
| G-402 (soft tissue, adherent, top dose 5.12 µM) | 0.916 | < 5.29 |
